For orientation: % Inhibition means the change of the read-out against control, counted positive when it falls.

The values that follow come from ChEMBL document CHEMBL5308541, “MAIP: An Open-Source Tool to Enrich High-Throughput Screening Output and Identify Novel, Druglike Molecules with Antimalarial Activity” (ACS Med Chem Lett, 2023).

The structures appear in SMILES notation. About 540 (0.36%) of roughly 150,000 compounds showed an effect of 50% or more. This is one part of the list.

The assay concerns Plasmodium falciparum. The assay is described as follows: Primary screen in NF54 nanoGlo assay, in single point, at 2uM, 72h; a lower Z score goes with more inhibition. It counts as functional, Erythrocyte. Particulars: timepoint 72 hour.
Consider `Cn1cc(Nc2cccc(NC(=O)[C@@H]3CCCCN3Cc3cccnc3)c2)cn1`, for which the “% Inhibition” value is recorded as -7% and the Z score amounted to 1.04.
As for `COc1ccc(-c2cnn3ccccc23)cn1`, the “% Inhibition” value was -12% and the Z score is reported as 2.08.
In the same order, the values of `Clc1ccc(-c2n[nH]c3ccc(Nc4cc(-c5ccccc5)ncn4)cc23)cc1Cl` are 1% and -0.21.
The corresponding values for `CC(CN1CCN(C)CC1)NC(=O)C1CCN(CC2CCCc3ccccc32)C1` (centres undefined) are 4% and -0.96.
In the case of `O[C@H]1CCN(Cc2ccccc2CNc2cccc(-n3ccnc3)n2)C1`, the “% Inhibition” value came to 94% and the Z score is -14.28.
For the molecule `COc1cccc(-c2c(-c3ccccc3)ncn2[C@H]2CC[C@H](O)CC2)c1F`, the “% Inhibition” value is -1% and the Z score came out at 0.15.
The corresponding values for `Cc1ccncc1N1CCN(C(=O)c2ccc(OC(F)F)nc2)CC1` are -10% and 2.21.
The corresponding values for `c1ccc(CCN2CCC[C@H](CNCc3cnc(-c4ccccn4)nc3)C2)cc1` are 13% and -2.31.
On to `COCCC1(CNC(=O)c2ccc(CN)nc2C2CC2)CCCCC1`, for which the “% Inhibition” value is recorded as -12% and the Z score turned out to be 1.81.
On to `CCNc1cc(-c2nc(-c3cccn3C)cs2)ccn1`, for which the “% Inhibition” value is -5% and the Z score came to 1.
As to `Cc1cnccc1NCCNCc1cnc(N2CCCCC2)nc1`, the “% Inhibition” value is recorded as 57% and the Z score is given as -12.25.
As for `CC(C)N(Cc1cc(-c2ccccc2)[nH]n1)C(=O)[C@@H]1CC2(CCNCC2)CN1`, the “% Inhibition” value is given as 7% and the Z score is on record as -1.21.
The corresponding values for `COCc1cccc(N[C@@H](C)c2nnnn2C2CCCCC2)c1` are -8% and 1.24.
Regarding `O=C(c1cc(-c2ccccc2F)n[nH]1)N1CCC(Nc2ccccn2)CC1`, the “% Inhibition” value is 5% and the Z score is listed as -1.04.
The corresponding values for `CCN1C[C@@H](Nc2ccc(-c3nc(CCCc4ccccc4)no3)cn2)CC1=O` are -7% and 1.57.
For the molecule `Cc1cnc(-c2ccncc2)n1[C@H]1CCN(C2CCN(Cc3ccccc3)CC2)C1`, the “% Inhibition” value is -3% and the Z score was 0.53.
In the same order, the values of `CC[C@](NCc1cnn2c1CCC2)(C(=O)O)c1ccc(Cl)cc1` are -8% and 1.28.
Take `CCN(c1ccccc1F)S(=O)(=O)NC(=O)c1ccnc2ccccc12`: the “% Inhibition” value is -1% and the Z score was 0.17.
The corresponding values for `Cc1ccc(-c2cn(-c3ccccc3)nc2/C=C/C23NC(=O)CN2c2ccc(C)cc2C3(C)C)cc1` (centres undefined) are -6% and 1.05.
The corresponding values for `COCC(=O)Nc1ccc(C)c(NC(=O)c2cc(C)nc3c(C)c(C)ccc23)c1` are -2% and 0.3.
In the same order, the values of `O=C1CC[C@H](N2CCN(c3ccnc(N4CCCCC4)n3)CC2)CCN1` are -4% and 0.83.
Consider `COc1ccc(CNc2nc(-c3ccc(Oc4ccc(Cl)cc4)cc3)cs2)c(C)c1OC`, for which the “% Inhibition” value is 0% and the Z score was found to be 0.05.
In the same order, the values of `Cc1ccc2[nH]c(C(=O)N3CCC(c4c[nH]c5ncccc45)CC3)cc2c1C` are 17% and -3.65.
`CC(C)CN1CCCN(c2nc(-c3ccncc3)nc3c2CNC3)CC1`: the “% Inhibition” value is -4% and the Z score is on record as 0.79.
As for `NC(=O)c1nc([C@@H]2CCOc3ccccc32)no1`, the “% Inhibition” value was -8% and the Z score came out at 1.36.
The corresponding values for `C[C@@H](c1cccc(-c2nccc3ncccc23)c1)N1CCCC1` are -7% and 1.08.
In the same order, the values of `Cn1ccnc1C(=O)NCC1CCN(C(=O)C(F)(F)F)CC1` are -3% and 0.59.
In the same order, the values of `O=C(NC1CCN(CC2CC2)CC1)c1n[nH]c2ccc(Cl)cc12` are 2% and -0.48.
As for `O=C(Nc1ccc(N2CCC(NC[C@@H](c3ccncc3)N3CCOCC3)CC2)cc1)C1CCCC1`, the “% Inhibition” value is -7% and the Z score worked out at 1.25.
In the same order, the values of `O=C(NCc1cccnc1)c1ccc(N2CCC(NCC[C@H]3COc4ccccc4O3)CC2)cc1` are 0% and 0.02.
The corresponding values for `CN(C)c1cc(C(F)(F)F)nc(N[C@H]2CCCN(C(=O)N3CCCC3)C2)n1` are 2% and -0.37.
The corresponding values for `CN1CC[C@H](Cn2cnc(-c3ccccc3)c2-c2cccc(F)c2F)C1` are -4% and 0.8.
For the molecule `CN1CCN(Cc2ccccc2-c2ccc(Oc3nccn(C)c3=O)cc2)CC1`, the “% Inhibition” value is 2% and the Z score is recorded as -0.34.
For the molecule `CCc1nc(N[C@H]2CC[C@@H](C(=O)N3CCCCC3)C2)c2ccsc2n1`, the “% Inhibition” value was -13% and the Z score turned out to be 2.31.
As to `Fc1ccc(C2(NCc3ccc(F)c4cccnc34)CCOCC2)cc1`, the “% Inhibition” value is listed as 9% and the Z score is reported as -1.92.
The corresponding values for `Fc1ccc(-c2ccc(CNCc3cc4ccccc4[nH]3)s2)cc1` are -5% and 0.87.
Take `CN(C[C@H]1CCCO1)S(=O)(=O)c1ccc(C(=O)Nc2cccc(-c3nc4ccccc4[nH]3)c2)cc1`: the “% Inhibition” value was -13% and the Z score was 1.96.
The corresponding values for `COCCN(Cc1ccc2c(c1)OCO2)C(=O)N[C@H]1CCCc2sccc21` are 4% and -0.67.
Regarding `c1csc(C2CCN(CCNc3ncnc4ncccc34)CC2)c1`, the “% Inhibition” value turned out to be 1% and the Z score is reported as -0.14.
In the same order, the values of `CN1CCCC[C@@H]1CC(=O)N1CCC(c2cc[nH]n2)CC1` are 2% and -0.39.
The corresponding values for `CCN1C[C@H](Nc2nc(C)nc3sccc23)[C@@H](OC)C1` are 99% and -21.25.
Consider `Cn1c2ccc(C#Cc3ccccc3)cc2c2cc(C#Cc3ccccc3)ccc21`, for which the “% Inhibition” value is reported as -2% and the Z score was 0.42.
Take `Nc1nc(-c2cccc3cnccc23)c2nc[nH]c2n1`: the “% Inhibition” value was -11% and the Z score stood at 1.66.
The corresponding values for `CN(Cc1cc(O)c2cccc(F)c2n1)C1CCNCC1` are -6% and 1.16.
Take `Cc1noc(-c2cccnc2N2CCC(c3c(C)[nH]c4ccccc34)CC2)n1`: the “% Inhibition” value stood at 11% and the Z score was -2.41.
In the same order, the values of `CN1CCN(CCOc2ccccc2CN[C@H]2CCCN(C(=O)c3ccco3)C2)CC1` are -4% and 0.64.
In the same order, the values of `Cc1nnc([C@H](C)Nc2cccc(Oc3ccc(C#N)cc3)c2)o1` are -3% and 0.5.
Take `Oc1ccc(-c2ccnc3[nH]ccc23)cc1Cl`: the “% Inhibition” value amounted to 1% and the Z score is -0.16.
Take `Cc1cc(NC(=O)N2Cc3cnn(CCO)c3C2)n(C2CCCC2)n1`: the “% Inhibition” value is recorded as -6% and the Z score is 1.25.
As to `Cc1ccc(N2N=C(C(=O)Nc3ccc4c(c3)CN(CCC(C)C)C4)NCC2=O)cc1`, the “% Inhibition” value was found to be 2% and the Z score is -0.38.
For `COc1cc(C(=O)N[C@H]2COCC2(C)C)cc(OC)c1C(C)C`, the “% Inhibition” value is listed as -14% and the Z score was determined as 2.12.
In the same order, the values of `Cc1ncsc1CN(C)S(=O)(=O)N1CCC(C)CC1` are 3% and -0.68.
On to `CC(C)c1nc(N[C@H]2CCCN(CC(F)(F)F)C2)nc(N(C)C)n1`, for which the “% Inhibition” value is on record as -6% and the Z score was determined as 0.84.
The corresponding values for `CCn1c(C)cc(C)c(C(=O)N(C)C2COCC2O)c1=O` (centres undefined) are -4% and 0.77.
The corresponding values for `CCN1CCN(CC(=O)N2CCC(O)(CN3CCCC3)CC2)CC1` are -1% and 0.28.
On to `CN1CCN(C2(CNc3nc4c(c(=O)[nH]3)CCNC4)CCCCC2)CC1`, for which the “% Inhibition” value was -6% and the Z score is 1.23.
The corresponding values for `Cc1ccc(C)c2[nH]c(-c3ccc(Oc4cnccn4)cc3)nc12` are -18% and 3.03.
The corresponding values for `NS(=O)(=O)c1cnc(N[C@H]2CCCN(C3CCCCC3)C2)s1` are -7% and 1.32.
The corresponding values for `O[C@@]1(CN2CCC3(CC2)CNc2ccccc23)CCCNC1` are -2% and 0.44.
Turning to `O=C(OCc1ccccc1)C1C2CCC(C2)C1NC1CCN(CC(F)(F)F)CC1` (centres undefined), the “% Inhibition” value was -12% and the Z score is 2.49.
For `C[C@@H]1CN(c2ccc(NC(=O)c3cc(-c4ccccc4)[nH]n3)cc2)C[C@H](C)O1`, the “% Inhibition” value is -4% and the Z score is reported as 0.72.
`NC(=O)[C@H]1CCCN(CCCNc2nc(-c3ccccc3)nc3ccccc23)C1`: the “% Inhibition” value came out at 2% and the Z score was -0.31.
In the same order, the values of `Nc1cc(C(=O)N2CCC(CNC(=O)C[C@H]3CCc4ccccc43)CC2)[nH]n1` are -11% and 1.97.
As to `Cn1ccc2ccc(CN3CCCN(C4CCCC4)CC3)cc21`, the “% Inhibition” value is -6% and the Z score stood at 1.12.
In the same order, the values of `CC(=O)c1cc(C(=O)N(C)C[C@@H]2C[C@H](F)CN2c2nnc(C)o2)n(C)c1` are 0% and 0.08.
As for `COc1ccc(F)c(F)c1CN(C)Cc1ncc[nH]1`, the “% Inhibition” value was -14% and the Z score was found to be 2.79.
In the same order, the values of `CN(CCN1C(=O)c2ccccc2C1=O)C(=O)c1cc2occc2[nH]1` are -11% and 1.95.
In the case of `CC(C)NC(=O)c1ccnc(NCCCc2nc3cc(Cl)ccc3[nH]2)c1`, the “% Inhibition” value is on record as -8% and the Z score stood at 1.24.
In the case of `O[C@@H]1CCCCC[C@H]1Nc1cccc(-n2ccnc2)n1`, the “% Inhibition” value is reported as -11% and the Z score is listed as 1.62.
Take `Clc1cccc(-c2ccnc(NCc3cc4n(n3)CCCNC4)n2)c1`: the “% Inhibition” value came to 0% and the Z score is recorded as 0.01.
The corresponding values for `CC(=O)N1CC[C@H](Nc2cc(NCC3CC3)ncn2)C1` are -1% and 0.13.
Consider `CN(Cc1ccc2ncccc2c1)C(=O)[C@@H](c1ccc(F)cc1)N1CCCCC1`, for which the “% Inhibition” value is listed as -13% and the Z score amounted to 2.7.
As for `CN(C)C1CCN(CCNC2CCC3CN(Cc4ccccc4)CC32)CC1` (centres undefined), the “% Inhibition” value was determined as 18% and the Z score is -3.94.
In the same order, the values of `Cc1nc(Nc2ccc(N)cc2)cc(NC2CCCCC2)n1` are -8% and 1.21.
The corresponding values for `Cc1c(NC(=O)CN2CC3CN(C(=O)Cn4ncnn4)CC3(CO)C2)cnn1C` (centres undefined) are -6% and 1.06.
For the molecule `CCCCN1CCN(C(=O)c2ccc(-c3ccc4nc[nH]c4c3)cc2)CC1`, the “% Inhibition” value is listed as -1% and the Z score worked out at 0.13.
The corresponding values for `COCCN1CCC(Nc2nccnc2NC2CCN(CCOC)CC2)CC1` are 1% and -0.15.
The corresponding values for `Fc1cccc(CCNc2ccc3ccccc3n2)c1` are -3% and 0.46.
In the same order, the values of `COc1ccc(-c2ccc(C(=O)O)c(N3CCC[C@H](CCC(N)=O)C3)n2)cc1` are -8% and 1.49.
On to `c1cn(CCCN2CCCC[C@@H]2CCN2CCOCC2)cn1`, for which the “% Inhibition” value is recorded as -2% and the Z score is 0.26.
In the same order, the values of `N[C@H]1C[C@H](c2cc(NCc3ccc4c(c3)CCCO4)ncn2)C1` are -9% and 1.61.
The corresponding values for `COCCN1CC[C@H](CN(C)C(=O)CN2CCCN(C)CC2)C1` are -8% and 1.4.
